# The campaign covered roughly 370,000 compounds. About 150 (0.041%) were called active. The inconclusive results got no clear call from the source; some entries with a clear call stand among them for comparison. Calls come from the whole dose curve; as a rule, active = well fitted inhibition curve with a large enough effect; inconclusive = small, poorly fitted or top-dose-only effect; inactive = flat fitted curve, though single readings scatter. No potency is given beside an inconclusive call; the fits are too rough.
# Target: Beta-lactamase (Escherichia coli (strain K12)) (UniProt P00811)
# Experiment: qHTS Inhibitors of AmpC Beta-Lactamase (assay with detergent); note: nearly all actives have a fitted effect of over 25% in size;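 for activity change, negative = inhibition: 0% = no-compound wells and -100% = no-enzyme wells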
# Conditions: AmpC hydrolysis of nitrocefin, absorbance 480 nm, 0.01% Triton; activity change, negative = inhibition: at 114 µM (top of the series)
# How it was run: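 AmpC (5.3 nM in the dispensed reagent) in 20 mM phosphate pH 7.0 with 0.01% (detergent screen) or 0.0001% Triton X-100 was preincubated with compounds for 15 min at room temperature. Nitrocefin was then added from an 800 uM solution, and hydrolysis was followed at 480 nm.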
# Potency is the fitted concentration of half-maximal effect; tags give direction and shape of the fitted curve.
# Sequence of UniProt P00811 (P00811 whole entry, looked up): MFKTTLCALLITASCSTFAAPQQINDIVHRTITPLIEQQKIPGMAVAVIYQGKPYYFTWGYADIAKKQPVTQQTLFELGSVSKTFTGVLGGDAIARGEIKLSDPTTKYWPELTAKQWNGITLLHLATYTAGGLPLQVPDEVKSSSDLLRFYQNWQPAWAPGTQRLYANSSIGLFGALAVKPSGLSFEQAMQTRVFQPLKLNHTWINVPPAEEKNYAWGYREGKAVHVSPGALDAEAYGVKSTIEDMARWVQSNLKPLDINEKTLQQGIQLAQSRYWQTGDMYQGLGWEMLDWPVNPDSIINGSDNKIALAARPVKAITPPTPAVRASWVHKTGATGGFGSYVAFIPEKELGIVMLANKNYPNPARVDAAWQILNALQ
Compound,"activity change, negative = inhibition",Potency
Cc1ccc(N(C)S(=O)(=O)c2cccc(C(=O)Nc3nc4ccccc4[nH]3)c2)cc1,inactive: -13.6%,
Cc1cccc(NC(=O)c2sc(-n3nc(C)c(Cc4ccc5c(c4)OCO5)c3C)nc2C)c1C,inactive: 8.21%,
COC(=O)c1cc(O)cc(OC)c1C(=O)c1c(O)cc(C)cc1O,inactive: 7.18%,
CCN1C(=S)SC(=O)C1=C1C=C(C)N(CCOC)C(C)=C1,inactive: -14.7%,
CCN(CC)C1CCN(C(=O)c2ccc(OC3CCN(CCc4ccccc4)CC3)cc2)C1 (stereo not given),,"inconclusive [inhibitor, full curve]"
O=C(c1ccccc1)N1CCN(S(=O)(=O)c2ccc(Cl)c(C(F)(F)F)c2)CC1,,"inconclusive [inhibitor, full curve, poor fit]"
CCC(=O)N1N=C(c2ccc(C)cc2)CC1c1ccco1 (stereo not given),inactive: -10.5%,
COc1ccccc1CN1CC(C(=O)NCc2ncccc2C)CCC1=O (stereo not given),,"inconclusive [inhibitor, full curve, poor fit]"
Cc1nc2ccc(NC(=O)c3ccco3)cc2nc1C,inactive: 5.96%,
COc1ccc(S(=O)(=O)NCCSC(C)(C)C)cc1Cl,,"inconclusive [inhibitor, full curve]"
CC(C(=O)Nc1ccccc1)C(=O)Nc1ccccc1,,"inconclusive [inhibitor, full curve, poor fit]"
O=C(OCc1nnc(-c2ccc(Cl)cc2)o1)c1ccncc1,,"inconclusive [inhibitor, full curve]"
CC(C)(C)n1ncc2c(=O)n(CC(=O)Nc3ccc4c(c3)OCO4)cnc21,,"inconclusive [inhibitor, single point]"
CC(C1CC1)N(Cc1ccccc1)C(=O)NC(=O)c1ccc(F)cc1 (stereo not given),,"inconclusive [inhibitor, full curve, poor fit]"
COC(=O)c1c(-c2cccs2)csc1NC(=O)COc1c(C)ccc(C)c1C,inactive: 22.1%,
Cc1ccccc1CSCc1ccc(C(=O)NCCCN2CCOCC2)o1,inactive: -14.6%,
Oc1ccc(N=Nc2c(O)ccc3ccccc23)cc1,,"inconclusive [inhibitor, full curve]"
c1ccc(-c2csc(N3CCc4ccccc4C3)n2)cc1,,"inconclusive [inhibitor, full curve]"
O=C(Cc1ccc(Br)cc1)N1CCN(c2ccccc2)CC1,,"inconclusive [inhibitor, full curve, poor fit]"
CCCn1c(N)c(C(=O)CSc2nc(N)cc(=O)[nH]2)c(=O)n(C)c1=O,,"inconclusive [inhibitor, full curve, poor fit]"

# Source: PubChem BioAssay AID485294 (National Center for Advancing Translational Sciences (NCATS), 2010)
